Experimental data reported in PubChem BioAssay AID588382 (National Center for Advancing Translational Sciences (NCATS), 2011).
The campaign covered roughly 1,300 compounds. About 150 (12%) were called active. Not shown: some 30% with an inconclusive outcome. Calls come from the whole dose curve; as a rule, active = well fitted cell-killing curve with a large enough effect; inconclusive = small, poorly fitted or top-dose-only effect, or effect the other way; inactive = flat fitted curve, though single readings scatter. The list shows a part of the results, in another mix than the full data.

Assay: qHTS of small molecules that selectively kill Giardia lamblia: Hit Validation in HepG2 cytotox;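 note: compound exposure lasted overnight at 37 deg C; nearly all actives have a fitted effect of over 55% in size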;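 for activity change, negative = cytotoxicity: viability measured as cellular ATP by ATPLite luminescence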
Details: cell viability; Potency: HepG2 cytotoxicity; series mostly up to 38.3 µM; activity change, negative = cytotoxicity: at the top concentration
Description: Giardia lamblia is a human pathogen afflicting impoverished nations, and the most common cause of outbreaks of diarrhea in the United States. Giardia has been classified by the CDC as a category B bioterrorism organism. The favored anti giardiasis drugs in the US are metronidazole or tinidazole, compounds that have undesirable side effects. Moreover, increasing resistance to drug regimes and recurrence are a concern. It is thus clear that alternative drug treatments are needed.
In a collaboration between the University of Maryland, College Park and the NIH Chemical Genomics Center, a bioluminescence Giardia viability assay based on the trophozoites' ATP content was developed. This assay is suitable for high throughput screening, and miniaturized the assay for compound screening in 1536-well plates. The goal of the project is to screen the Molecular Libraries Small Molecule Repository (MLSMR) for compounds that selectively kill Giardia trophozoites. This counterscreen looks at the toxicity of the compounds against the human HepG2 cell line.
NIH Chemical Genomics Center [NCGC]
NIH Molecular Libraries Probe Centers Network [MLPCN]
Assay Submitter (PI): Osnat Herzberg, University of Maryland, College Park, MD.
4 uL of HepG2 cells ae dispensed into white 1536-well plates. They are incubated overnight at 37 deg C and then 23 nL of compounds are transferred to the wells with a pintool. Plates are incubated overnight at 37 deg C. 2 uL of ATPLite is added and the plates are incubated for 15 min at room temperature before they are read on the ViewLux for luminiescence.
% is set by controls: 0 for no effect and ±100 for the full control effect; potency is the fitted concentration of half-maximal effect.

Structure (SMILES)	activity change, negative = cytotoxicity	Potency
O=C1CC(SC(=Nc2ccccc2)Nc2ccccc2)C(=O)N1c1cccc2ccccc12 (stereo not given)	inactive: 15%	–
CCc1nn2c(=O)c(S(=O)(=O)Nc3ccc(Cl)cc3)c(C)nc2s1	inactive: 8.24%	–
N/C(=N\c1nc2ccccc2o1)NC(=O)C(Cc1ccccc1)N1C(=O)c2ccccc2C1=O (stereo not given)	inactive: 7.34%	–
Cc1ccc(OCC(=O)c2cc(C)n(Cc3cccs3)c2C)c([N+](=O)[O-])n1	inactive: -1.65%	–
CC(C)(C)c1cc(C(=O)N/N=C/c2ccncc2)n[nH]1	inactive: 8.9%	–
C[C@@H]1[C@H]2[C@@H](O[C@@H]3O[C@H](CO)[C@@H](O)[C@H](O)[C@H]3O)OC=C(C(=O)O)[C@H]2C[C@@H]1O	inactive: 20.3%	–
O=C(CCN=C1NS(=O)(=O)c2ccccc21)OCC(=O)c1ccc(F)c(F)c1	inactive: 3.31%	–
O=c1cccc(-c2ccccc2)[nH]1	inactive: 6.98%	–
O=C1NC(=S)S/C1=C\C=C\c1ccc([N+](=O)[O-])o1	–	active: 3.29 µM
CC(=O)NC(Cc1cccc(C)c1)C(=O)NC1CCN(c2ncccc2[N+](=O)[O-])CC1 (stereo not given)	inactive: 1.07%	–
Cc1ccc([N+](=O)[O-])cc1NC(=O)C1CCN(S(C)(=O)=O)CC1	inactive: 20.3%	–
CCn1cc(-c2cc(C(=O)O)c3ccccc3n2)cn1	–	active: 2.07 µM
CCOC(=O)C1CCN(c2ccc([N+](=O)[O-])c(C(C)=O)c2)CC1	inactive: 16.6%	–
COc1ccc(OC)c2c(C)c(C)[nH]c12	inactive: 13.6%	–
Cc1cc(C2=NNC(=NC3CC3)SC2)c(C)n1-c1ccccc1F	–	active: 0.927 µM
S=c1[nH]nc2ccccn12	inactive: 10.4%	–
Cc1onc(-c2ccccc2)c1NC(=O)N(Cc1ccccc1)C(C)C	inactive: 2.45%	–
O=C(COC(=O)c1cc(Cl)ccc1O)NC(=O)NCc1ccccc1	inactive: 19.2%	–
CCCCc1cc(=O)oc2c(C)c(OCC(=O)NCc3ccccn3)ccc12	inactive: 22.9%	–
COc1ccc(-c2ccc([C@H]3[C@@H]4C=CCC[C@@]4(C)C(=O)N3Cc3ccccc3)c(F)c2)cc1OC	inactive: -18.1%	–
O=C(Nc1ccc(O)c2c(=O)cc(-c3ccccc3Cl)oc12)c1ccc(F)cc1	inactive: 5.41%	–
O=C(Cc1ccc(Cl)cc1)Nc1ncc([N+](=O)[O-])s1	inactive: -20.5%	–
C=CCNc1ncnc2sc(SC)nc12	inactive: 12.9%	–
Cc1ccc(-c2ccc(/C=N/N3C(=O)C4C5C=CC(CC5)C4C3=O)o2)c([N+](=O)[O-])c1 (stereo not given)	inactive: 25.7%	–
O=C(Nc1ncc([N+](=O)[O-])s1)c1cccc([N+](=O)[O-])c1	–	active: 3.29 µM

Structure (SMILES)	activity change, negative = cytotoxicity	Potency
COCc1ccc(C(=O)N2CCCC(C(=O)c3ccc(Cl)cc3C)C2)o1 (stereo not given)	inactive: 12.9%	–
O=C(CSc1ccsc1[N+](=O)[O-])NCc1ccccc1	inactive: 23.3%	–
O=c1sc(N2CCN(c3ccc(F)cc3)CC2)nc2ccsc12	inactive: 21.6%	–
CCN(CC)CCCC(C)Nc1cc(/C=C/c2ccccc2Cl)nc2cc(Cl)ccc12 (stereo not given)	–	active: 2.07 µM
N#Cc1ccc(-c2c(-c3ccccc3)ncc3cc(F)ccc23)cc1	inactive: -5.65%	–
COc1ccc2cc(-c3cc(C(=O)OCC(=O)Nc4c(C)n(C)n(-c5ccccc5)c4=O)c4ccccc4n3)ccc2c1	–	active: 0.464 µM
O=C(COc1cccnc1[N+](=O)[O-])NCCc1ccc(Cl)cc1	inactive: 2.14%	–
COc1cc(C(=S)N2CCOCC2)ccc1OC(=O)/C=C/c1ccco1	inactive: 12.5%	–
O=C(NCCO)c1ccc2c3n(nc2c1)-c1ccccc1CO3	–	active: 2.93 µM
COC(=O)[C@]1(C)N[C@H](CN(C)S(=O)(=O)c2ccc(-c3ccccc3)cc2)[C@@H]2C(=O)N(Cc3ccccc3)C(=O)[C@@H]21	inactive: 18.3%	–
COc1ccc(Cc2nnc(NC(=O)Nc3ccccc3F)s2)cc1OC	inactive: 12.6%	–
COc1ccc(-n2nc([N+](=O)[O-])c(=NCCc3ccc(C)cc3)n2O)cc1	inactive: 0.151%	–
O=C(COc1ccccc1)N=C1SC2CS(=O)(=O)CC2N1c1ccccc1F (stereo not given)	inactive: 1.52%	–
O=C(c1cc(Cl)ccc1Cl)N1CCN(Cc2ccccc2)CC1	inactive: 6.29%	–
CC(=O)c1c(C)n([O-])c2cc(F)c(F)cc2[n+]1=O	inactive: -4.47%	–
O=C(Nc1nnc(SCC(=O)N2CCOCC2)s1)c1ccccc1Cl	–	active: 2.07 µM
CC(=O)c1sc(NC(=O)c2ccc(C)c(C)c2)nc1C	inactive: -14.5%	–
Cc1ccc(S(=O)(=O)N2[C@@H](c3ccc(F)cc3)C(C(=O)O)=CC[C@H]2c2ccc(Cl)cc2)cc1	inactive: 2.24%	–
O=C(Cn1cnc2c(OCc3ccccc3)ncnc21)NCCCc1ccccc1	inactive: 8.11%	–
CC(=O)Nc1nc(-c2cc([N+](=O)[O-])cs2)cs1	inactive: 1.82%	–
CCCNC(=O)Cn1c(=O)n(C)c2ccccc21	inactive: 7.3%	–
OCCOCCNc1ncnc2c1c(-c1ccccc1)cn2-c1ccccc1	inactive: 1.82%	–
Cc1[nH]n(C2=NCCS2)c(=O)c1N=Nc1cccc(C(F)(F)F)c1	–	active: 4.65 µM
CN(C(=O)c1ccc(NC(=O)Cc2ccc(NC(=O)C3CCCN(S(=O)(=O)c4cccc([N+](=O)[O-])c4)C3)cc2)cc1)C1CCCC1 (stereo not given)	inactive: 6.63%	–
Cc1ccc(S(=O)(=O)N2[C@@H](c3ccc(F)cc3)C(C(=O)O)=CC[C@H]2c2ccc3c(c2)OCO3)cc1	inactive: 11.6%	–

Structure (SMILES)	activity change, negative = cytotoxicity	Potency
COc1ccc(CCNc2oc(COc3ccc(Br)cc3)nc2C#N)cc1OC	inactive: 1.26%	–
CCOC(=O)c1c(NC(=O)CS(=O)(=O)c2cn(CC)c3ccccc23)sc2c1CCCCC2	inactive: 1.24%	–
COc1ccc(-c2nc(CSCC(=O)NC3CCCC3)c(C)o2)cc1OC	inactive: 11.8%	–
O=[N+]([O-])c1ccc(N2CCN(CCO)CC2)c2ncccc12	inactive: 3.63%	–
COc1ccccc1-n1cc2c([N+](=O)[O-])cc([N+](=O)[O-])cc2n1	inactive: 11.2%	–
CC(C)C[C@H](NC(=O)c1[nH]cnc1C(=O)N[C@H](C)c1ccccc1)C(=O)OCc1ccccc1	inactive: 1.68%	–
CC(=O)Nc1ccc(/C=C/c2noc(-c3ccccc3O)n2)cc1	inactive: 0.21%	–
CC1(C)Oc2ccc3ccc(=O)oc3c2C(/C=N/O)C1=O (stereo not given)	inactive: 16.5%	–
CSc1cccc(NS(=O)(=O)c2cn(C)cn2)c1	inactive: -0.564%	–
CC(=O)NCCNC(=O)c1ccc(CSc2ccc(Cl)cc2)cc1	inactive: 11.1%	–
CC(C)Cn1c(=S)[nH]c2cc(C(=O)NCc3ccccc3F)ccc2c1=O	inactive: -0.596%	–
COc1cc2sc(-c3ccccc3OC)c(-c3ccc(O)cc3)c2cc1OC	inactive: -0.122%	–
c1ccc(CCNc2ncnc3nc[nH]c23)cc1	inactive: 10.5%	–
CC(=O)N(/N=C/c1ccc([N+](=O)[O-])o1)c1nc2ccccc2c(=O)n1-c1ccccc1	inactive: -17.4%	–
FC(F)(F)c1ccc2c(c1)N1CCCC1CN2 (stereo not given)	inactive: 0.308%	–
C[C@@H]1CN([C@H](C)CO)C(=O)c2cc(NC(=O)Nc3ccc4c(c3)OCO4)ccc2O[C@H]1CN(C)Cc1ccncc1	inactive: 8.98%	–
C[C@@H]1CC=C[C@H]2[C@H]1C(=O)N(Cc1ccccc1)[C@H]2c1ccc2ccccc2c1/C=C/c1ccccc1	inactive: 6.21%	–
O=C(Oc1cccc2c(O)cccc12)c1ccccc1Cl	inactive: 20.5%	–
CCN(CC)CC(=O)Nc1c(C)cccc1C	inactive: 14.7%	–
Cc1c(NC2(C#N)CCCC2)c(=O)n(-c2ccccc2)n1C	inactive: 3.27%	–
COc1cc2c3c(c1OC)C1(C=CC(=NNC(N)=O)C=C1)CC3N(C(C)=O)CC2 (stereo not given)	inactive: -0.0508%	–
Cc1ccc(S(=O)(=O)CC(=O)Nc2ncc([N+](=O)[O-])s2)cc1	inactive: 1.79%	–
COc1ccc(CC(=O)NCC(=O)Nc2ccccc2Br)cc1	inactive: 21.4%	–
NC(=O)C1CCN(c2cc(Cl)ccc2[N+](=O)[O-])CC1	inactive: 15.7%	–
CC(C)CC(=O)NC(=S)NNC(=O)c1cccc([N+](=O)[O-])c1	inactive: -27.5%	–

Structure (SMILES)	activity change, negative = cytotoxicity	Potency
Cn1c(=O)c(=O)n(C)c2cc([N+](=O)[O-])c(N3CCOCC3)cc21	inactive: -8.79%	–
OC(COc1cccc2ccccc12)CN1CCN(c2ccc(Cl)cc2)CC1 (stereo not given)	inactive: -21.8%	–
Cn1c(CNC(=O)c2ccccc2F)cc2ccccc21	inactive: 0.748%	–
O=C(O)C1CCCN1S(=O)(=O)c1ccc(Br)cc1 (stereo not given)	inactive: 23.3%	–
CCC(=O)N1CCN(c2ccc(NC(=O)c3ccc([N+](=O)[O-])o3)cc2Cl)CC1	–	active: 3.69 µM
CCN1C[C@@H]2[C@@H]3C(=O)N(Cc4ccccc4)C(=O)[C@@H]3[C@](C)(C1=O)N2C(=O)c1ccccc1	inactive: 0.487%	–
Cc1cc(NC(=O)c2ccc([N+](=O)[O-])o2)ccc1NC(=O)c1ccco1	–	active: 2.93 µM
C#CCCOC(=O)Nc1ccccc1	inactive: 19.7%	–
Cc1cc([N+](=O)[O-])nn1Cc1noc(C(=O)NCc2ccc3c(c2)OCO3)n1	inactive: 17.5%	–
COc1ccc(-c2nc3c(=O)n(C)c(=O)nc-3n(C)n2)cc1	–	active: 1.85 µM
O=c1c2ccccc2nc(/C=C/c2ccc([N+](=O)[O-])o2)n1CCCO	–	active: 3.69 µM
O=C(O)c1cc2ccccc2c(N=Nc2cccnc2)c1O	inactive: 17.4%	–
CCCC/C=C/C(NC(=O)c1ccc(C(=O)OC)cc1)c1ccccc1 (stereo not given)	inactive: 13%	–
O=C1CSC(c2ccc(F)cc2)N1c1c(F)cccc1F (stereo not given)	inactive: 5.7%	–
O=[N+]([O-])c1cn(-c2nc(-c3ccco3)cc(C(F)(F)F)n2)cn1	inactive: 2.48%	–
CCNc1nc(NCC)nc(-n2nc(C)cc2C)n1	inactive: 13.7%	–
COc1ccc2oc(=Nc3ccccc3)c(-c3nc4ccccc4[nH]3)cc2c1	–	active: 7.36 µM
COc1ccccc1C(=O)C1CCCN(C(=O)c2ccco2)C1 (stereo not given)	inactive: 5.82%	–
COc1ccc(NS(=O)(=O)c2ccc3oc4ccccc4c3c2)cn1	inactive: 2.07%	–
COc1cccc(CSc2nc3ccncc3[nH]2)c1	–	active: 4.65 µM
Cc1cccc(NC(=O)N2CCN(Cc3ccc4c(c3)OCO4)CC2)c1C	inactive: 9.98%	–
CN1C2=CC=CC=CC2=[N+](C)C12C([N+](=O)[O-])=CC(=[N+]([O-])[O-])C=C2[N+](=O)[O-] (stereo not given)	inactive: 21%	–
CC1CCN(S(=O)(=O)c2cn(C)c(=O)n(C)c2=O)CC1	inactive: 15.2%	–
O=C(Nc1ccc(N2CCCCC2)cc1)c1ccc([N+](=O)[O-])o1	–	active: 13.1 µM
COc1ccccc1S(=O)(=O)Cc1ccc(C(=O)NCC(OC)OC)o1	inactive: 19.4%	–
